About 7,500 (2.1%) of roughly 360,000 compounds were called active. Inconclusive means that the source gave no clear call. Such entries were picked first, then a sample of the others. Calls come from the whole dose curve; as a rule, active = well fitted cell-killing curve with a large enough effect; inconclusive = small, poorly fitted or top-dose-only effect, or effect the other way, or another doubt; inactive = no such curve, though single readings can be large or run the other way. Potencies of inconclusive entries are left out as doubtful fits.
Test: qHTS for induction of synthetic lethality in tumor cells producing 2HG: qHTS for the HT-1080-IDH1KD cell line;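 for activity, negative = toxicity: 0% = DMSO wells and -100% = cell-free medium wells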
Conditions: HT-1080 IDH1 knockdown viability, ATP luminescence, 48 h; activity, negative = toxicity: at 46.1 µM (top of the series) unless noted
In short: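 Cytotoxicity counter-line: IDH1KD HT-1080, 48 h, CellTiter-Glo. Curves classed by r2, magnitude and activity.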
Potency is the fitted concentration of half-maximal effect; tags give direction and shape of the fitted curve.

Q: For CC1=C(CC(=O)c2ccc(Cl)cc2)C(=O)c2ccccc2C1=O, which Potency is on record?
A: active: 11.2 µM

Q: Which Potency does the source give for c1ccc2c(c1)c1c(c3ccccc32)CN2CCCC2C1 (stereo not drawn) here?
A: active: 23.1 µM

Q: With O=C(Cn1cc(Cl)c([N+](=O)[O-])n1)NCCC1=CCCCC1 as the molecule, how does the Potency read?
A: inactive

Q: Which Potency does the source give for CC(=O)c1c(C)[nH]c(C(=O)NC(C)c2ccccc2)c1C (stereo not drawn) here?
A: inactive

Q: With COc1ccc(/C(C)=N/Nc2nccnc2Cl)cc1 as the molecule, how does the Potency read?
A: inconclusive [cytotoxic, single point]

Q: Which Potency does the source give for COc1ccc(C2=CC(=O)N(Nc3ccccc3)C2=O)cc1 here?
A: active: 16.4 µM

Q: Which Potency does the source give for COC(=O)c1[nH]c2ccc(C)cc2c1NC(=O)CN1CCCc2ccccc21 here?
A: inconclusive [cytotoxic, single point]

Q: Which Potency does the source give for COc1ccc(OC)c2[nH]c(=O)c(CCNC(=O)c3ccc(Br)o3)cc12 here?
A: inactive

Q: With COc1ccc2ccccc2c1-c1sc(Nc2ccccc2)n[n+]1-c1ccc(F)cc1 as the molecule, how does the Potency read?
A: inconclusive [cytotoxic, single point]

Q: Which Potency does the source give for CC(C)C[C@H](NC(=O)c1nc[nH]c1C(=O)N[C@@H](CCCCNC(=O)OC(C)(C)C)C(=O)OC(C)(C)C)C(=O)OC(C)(C)C here?
A: inconclusive [cytotoxic, single point]

Q: Which Potency does the source give for COc1ccc(OC)c(C2=Nn3c(nnc3-c3ccncc3)SC2)c1 here?
A: inactive

Q: With CCc1nc2ccc(C(=O)Nc3ccc(NC(C)=O)cc3)cn2c1N(CCC(C)C)CCN(C)C as the molecule, how does the Potency read?
A: inactive

Q: Which Potency does the source give for N#Cc1cc2ccc(N3CCOCC3)cc2cc1C#N here?
A: inconclusive [cytotoxic, single point]

Q: Which Potency does the source give for CCN(CC)C(=O)CSc1nc(N)c2c3c(sc2n1)CC(C)CC3 (stereo not drawn) here?
A: inconclusive [cytotoxic, single point]

Q: Which Potency does the source give for CCOC(=O)c1c(C)[nH]c(C(=O)N/N=C\c2ccccc2Cl)c1C here?
A: active: 14.6 µM

Q: Which Potency does the source give for CCN(CC)S(=O)(=O)c1cccc(S(=O)(=O)c2cccc(S(=O)(=O)N(CC)CC)c2)c1 here?
A: inconclusive [cytotoxic, single point]

Q: For OC(c1ccccc1)(c1nc(-c2ccc(F)c(Cl)c2)cs1)C(F)(F)F (stereo not drawn), which Potency is on record?
A: active: 18.4 µM

Q: Which Potency does the source give for CCn1c2ccccc2c2cc(CN3CCN(C(=O)c4ccco4)CC3)ccc21 here?
A: inconclusive [cytotoxic, single point]

Q: With O=S1(=O)c2c(Oc3cccc4ccccc34)cccc2OC(COCc2ccccc2)CN1C1CCCC1 (stereo not drawn) as the molecule, how does the Potency read?
A: inactive

Q: Which Potency does the source give for Oc1ccc(NCc2cccc(OCc3ccccc3)c2)cc1 here?
A: inconclusive [cytotoxic, single point]

Q: With Cn1cc([N+](=O)[O-])c(C(=O)Nc2ccc3nc(-c4ccccc4)[nH]c3c2)n1 as the molecule, how does the Potency read?
A: inconclusive [cytotoxic, partial curve]

Q: For O=C(CNC(=S)NC(=O)c1cccc([N+](=O)[O-])c1)c1ccccc1, which Potency is on record?
A: inconclusive [cytotoxic, single point]

Q: With CCN(CC)CCNc1ccc(C)c2sc3ccc(O)cc3c(=O)c12 as the molecule, how does the Potency read?
A: inconclusive [cytotoxic, single point]

Q: For CCOCCCNC(=O)/C(C#N)=C/c1cc(OC)c(O)c([N+](=O)[O-])c1, which Potency is on record?
A: active: 4.61 µM

Q: For O=C(O)CCn1nnc(-c2cccs2)n1, which Potency is on record?
A: inactive

Q: For CCOC(=O)c1ccc(N=Cc2c(O)c3ccccc3oc2=O)cc1, which activity, negative = toxicity is on record?
A: inconclusive: -37.8% [cytotoxic]

Q: With C/C(=N\NC(=S)NCC(C)(C)C)c1cc(F)cc(F)c1O as the molecule, how does the Potency read?
A: inconclusive [cytotoxic, partial curve, poor fit]

Q: With O=C(/C=C/c1ccccc1)OCc1cncs1 as the molecule, how does the Potency read?
A: inconclusive [rising, single point]

Q: For CCCC(=O)Nc1c(C)n[nH]c1C, which Potency is on record?
A: inconclusive [cytotoxic, single point]

Q: With COc1cc(/C=N/NC(=O)c2cc(-c3ccccc3)nc3ccccc23)ccc1O as the molecule, how does the Potency read?
A: inconclusive [cytotoxic, single point]

Q: Which Potency does the source give for CC(C)NC(=O)CCn1c(=S)oc2ccccc21 here?
A: inactive

Q: For Cc1ccc(S(=O)(=O)N2C[C@@H]3c4ccccc4N(S(=O)(=O)c4ccc(C)cc4)[C@@H]3[C@@H](C)C2CC(=O)c2ccccc2)cc1 (stereo partly drawn), which Potency is on record?
A: inactive

Q: For Cc1cnc(C2OCCO2)c2cccc(N)c12, which Potency is on record?
A: inactive

Q: With Cc1nc2ccccc2n1-c1nc(-c2ccco2)cc(C(F)(F)F)n1 as the molecule, how does the Potency read?
A: active: 5.62 µM

Q: For Cc1cc(Nc2cccc([N+](=O)[O-])c2)n2c(nc3ccccc32)c1C#N, which Potency is on record?
A: active: 16.4 µM

Q: For COc1ccc(C2C(C#N)=C(N)OC3=C2C(=O)CC(C)(C)C3)cc1 (stereo not drawn), which Potency is on record?
A: inactive

Q: For CCOC(=O)C1=C(C)N=C2SC=C(C)N2C1c1ccc(OC)cc1 (stereo not drawn), which Potency is on record?
A: active: 20.6 µM

Q: Which Potency does the source give for CCCCC(OC(=O)CN1C(=O)COc2ccccc21)C(=O)NC1CCCCC1 (stereo not drawn) here?
A: inactive

Q: With COC(=O)c1c(C)oc2ccc(N(C(=O)c3ccncc3)S(=O)(=O)c3ccc(C)cc3C)cc12 as the molecule, how does the Potency read?
A: inconclusive [cytotoxic, single point]

Q: With O=C(O)c1cccc(COc2ccccc2Cl)c1 as the molecule, how does the Potency read?
A: inconclusive [cytotoxic, single point]

Q: For NNc1nc(Nc2ccccc2)nc(Nc2ccccc2)n1, which Potency is on record?
A: inconclusive [cytotoxic, partial curve]

Q: Which Potency does the source give for N#C/C(=C\c1ccncc1)c1nc2ccccc2o1 here?
A: inconclusive [cytotoxic, single point]

Q: For CNc1nc(NCc2ccccc2)c2sccc2n1, which Potency is on record?
A: inconclusive [cytotoxic, single point]

Q: With Cc1cc(C)c2nc(-c3ccncc3)cc(C(=O)N3CCN(Cc4ccccc4Cl)CC3)c2c1 as the molecule, how does the Potency read?
A: inconclusive [cytotoxic, single point]

Q: For CCC(C(=O)OC(C)C)c1ccc2ccccc2c1 (stereo not drawn), which Potency is on record?
A: inactive

Q: For Clc1ccc(N/N=C/c2cccnc2)cc1, which Potency is on record?
A: inconclusive [cytotoxic, partial curve]

Q: With O=C(NC1CCCCC1)C(c1ccc(-c2ccccc2)cc1)n1c(=O)c(-c2ccco2)nc2ccccc21 (stereo not drawn) as the molecule, how does the Potency read?
A: inconclusive [cytotoxic, single point]

Q: With Cc1ccc(NNc2c(C)nc3ccccc3nc2=O)cc1 as the molecule, how does the Potency read?
A: inactive

Source: PubChem BioAssay AID686971 (National Center for Advancing Translational Sciences (NCATS), 2013)
